The campaign covered roughly 350,000 compounds. About 9,900 (2.8%) were called active. Inconclusive results, whose numbers are uncertain, are shown with a selection of clear calls. Calls follow the shape of the dose curve; as a rule, active = well fitted activation curve with a large enough effect; inconclusive = small, poorly fitted or top-dose-only effect; inactive = no such curve, though single readings can be large or run the other way. No potency is given beside an inconclusive call; the fits are too rough.
test: A quantitative high throughput screen for small molecules that induce DNA re-replication in MCF 10a normal breast cells.; also: nearly all actives have a fitted effect of over 50% in size; conditions: MCF 10A DNA re-replication, Hoechst nuclear intensity, 48 h; series mostly up to 46.1 µM
Potency is read from the fitted curve at half-maximal effect; tags tell the direction and shape of the fitted curve.

| SMILES | Potency |
| --- | --- |
| CC1CC(C)CN(S(=O)(=O)CC23CCC(CC2=O)C3(C)C)C1 (configuration not stated) | inactive |
| COc1ccccc1NCC(O)COc1ccc(C(C)(C)C)cc1 (configuration not stated) | inconclusive [activator, partial curve, poor fit] |
| COc1cc(CN2CCN(c3cccc(C)c3C)CC2)cc([N+](=O)[O-])c1O | inconclusive [activator, single point] |
| Cc1n[nH]c(=O)c2c(NC(=O)CSc3nnc(C4CC4)n3C)oc(C)c12 | inconclusive [activator, single point] |
| Cc1ccc(SCc2ccc(C(=O)Nc3cccc([N+](=O)[O-])c3C)cc2)cc1 | inconclusive [activator, single point] |
| Cc1cc(NCCN2CCOCC2)c2ccc3ccccc3c2n1 | inconclusive [activator, partial curve, poor fit] |
| CCOC(=O)C1CCCN(CC(=O)/C=C2/N(C)c3ccccc3C2(C)C)C1 (configuration not stated) | inconclusive [activator, single point] |
| c1ccc(-c2nc(NCC3CCCO3)c3oc4ccccc4c3n2)cc1 (configuration not stated) | inconclusive [activator, single point] |
| Fc1ccc(NC(=S)NNc2ncc(C(F)(F)F)cc2Cl)c(F)c1 | inactive |
| COc1ccc(C2Nc3ccccc3C(=O)N2c2ccc(F)cc2)cc1CSc1ccccn1 (configuration not stated) | inconclusive [activator, partial curve] |
| O=C1N=C(N2CCCC2C(=O)O)S/C1=C\c1ccco1 (configuration not stated) | inconclusive [activator, partial curve, poor fit] |
| N=c1c(S(=O)(=O)c2ccc(Cl)cc2)cc2c(=O)n3ccccc3nc2n1Cc1cccnc1 | inactive |
| COc1cccc(N2CCN(C(=O)CCCCCn3c(=S)[nH]c4cc5c(cc4c3=O)OCO5)CC2)c1 | inconclusive [activator, partial curve, poor fit] |
| C/C(=N\NC(=O)c1ccc2c(c1)OCO2)c1ccco1 | inactive |
| CCOC(=O)Nc1ccc2c(COC(=O)c3ccccc3O)cc(=O)oc2c1 | inconclusive [activator, single point] |
| O=C1CN(S(=O)(=O)c2ccccc2)CCN1 | inactive |
| O=C(O)c1c[nH]c2c([N+](=O)[O-])cccc2c1=O | inconclusive [activator, single point] |
| COc1cc(NS(=O)(=O)c2ccc(NC(=O)/C(=C/c3ccccc3Cl)NC(=O)c3ccccc3)cc2)nc(OC)n1 | inconclusive [activator, single point] |
| O=C1[C@H]2[C@@H](c3ccc(F)cc3)N3C(=O)N(c4cccc(Br)c4)C(=O)[C@@]3(Cc3ccc(Cl)cc3)[C@H]2C(=O)N1C1CCCCC1 | inconclusive [activator, single point] |
| COc1cc(C2C(C#N)=C(N)Oc3cc(O)ccc32)cc2c1OCO2 (configuration not stated) | inconclusive [activator, single point] |
| CN1CCN(CCCNC(=O)c2ccc(CSCc3cccc(Cl)c3)o2)CC1 | inconclusive [activator, partial curve, poor fit] |
| CC(=O)c1cccc(NC(=O)Nc2cnn(Cc3ccc(Cl)cc3Cl)c2)c1 | inconclusive [activator, partial curve, poor fit] |
| CCN(CC)S(=O)(=O)c1cccc(-c2n[nH]c(=S)n2/N=C/c2ccc(OC(F)F)cc2)c1 | inactive |

| SMILES | Potency |
| --- | --- |
| Cc1noc(C)c1COc1ccc(C(=O)N2CCN(c3ccccc3O)CC2)cc1 | inactive |
| CN1C[N+]([O-])=C(c2ccccc2)C1(C)C | inconclusive [activator, single point] |
| COc1ccc(C(CNC(=O)c2cc(SC)ccc2Cl)N(C)C)cc1 (configuration not stated) | inactive |
| O=C(Nc1nnc(-c2ccc3c(c2)CCCC3)o1)c1ccccc1Cl | inconclusive [activator, single point] |
| Cn1cnnc1SC1CCCCC1NS(=O)(=O)c1ccc(Cl)cc1 (configuration not stated) | inconclusive [activator, partial curve, poor fit] |
| COc1cccc(-c2cc(C(=O)N3CCN(C(c4ccccc4)c4ccccc4)CC3)no2)c1 | inconclusive [activator, full curve, poor fit] |
| COc1ccc(NC(=O)CSc2nc(N)c(C#N)cc2C#N)cc1 | inactive |
| CC(=O)c1ccc(S(=O)c2ccccc2)cc1 (configuration not stated) | inactive |
| CCCCOc1ccc(C(=O)Nc2ccncc2)cc1 | inconclusive [activator, partial curve, poor fit] |
| Cc1ccnc(NC(=O)c2cccc(NC(=O)CC3SC(N4CCCCC4)=NC3=O)c2)c1 (configuration not stated) | inactive |
| O=C(NCCc1ccccc1)c1ccnc(/C=N/O)c1 | inactive |
| COc1ccc(/C=N/NC(=O)C[n+]2ccccc2)c(OC)c1 | active: 1.03 µM |
| Cc1cc(NC(=O)CSc2nc(-c3ccccc3)nc3c2c(=O)n(C)c(=O)n3C)no1 | inactive |
| NNc1nc(-c2ccccc2)c2cc(Br)ccc2n1 | inconclusive [activator, partial curve, poor fit] |
| CCCCNc1ccc2c3c(cccc13)C(=O)N(CCCC)C2=O | active: 7.31 µM |
| CCOc1ccc(-c2cc(C(=O)OC)nc3c2c(=O)n(C)c(=O)n3C)cc1 | active: 23.1 µM |
| CN(C)CC/C=C1\c2cc(Cl)ccc2Sc2cc(F)c(F)cc21 | inconclusive [activator, partial curve, poor fit] |
| CCc1c(C)nc(N)n2c(SCC(=O)Nc3ccccc3OC)nnc12 | inactive |
| NNC(=O)/C(=C/c1cccs1)NC(=O)c1ccccc1Cl | inconclusive [activator, single point] |
| CCOC(=O)C(C)Sc1nc(N)c(NC(=O)c2ccc(OC)c(OC)c2)c(=O)[nH]1 (configuration not stated) | inactive |
| CC(C)N(Cc1nnc(-c2ccc(Cl)cc2)o1)C(=O)c1cc2ccccc2o1 | inactive |
| COCCCn1c(=O)/c(=C\c2ccc(OC(F)F)c(OC)c2)s/c1=C(/C#N)C(=O)NCCOC | inconclusive [activator, single point] |
| CC1CCc2cc(F)cc3c(O)c(C(=O)NCC4CCCO4)c(=O)n1c23 (configuration not stated) | inconclusive [activator, single point] |

| SMILES | Potency |
| --- | --- |
| CCCN1C=CC(=CC=C(C#N)C#N)C=C1 | inconclusive [activator, single point] |
| CCCS(=O)(=O)N1CCCC(C(=O)NCCCN(C)Cc2ccccc2)C1 (configuration not stated) | inconclusive [activator, partial curve, poor fit] |
| S=C(NC1CCCC1)N1CCN(c2ncccn2)CC1 | inconclusive [activator, single point] |
| CCOC(=O)c1[nH]cnc1C(=O)Nc1ccccc1 | inconclusive [activator, single point] |
| CCc1nnc(NC(=O)C2Cc3ccccc3CN2S(=O)(=O)CC)s1 (configuration not stated) | inactive |
| C#CCOCCOCCOCCNc1nc(N2CCN(C(=O)[C@H](CCCN=C(N)N)n3cc(C(N)[C@@H](C)CC)nn3)CC2)nc(N2CCN(C(=O)[C@H](CC(N)=O)n3cc([C@@H](N)CC(N)=O)nn3)CC2)n1 (some centres not stated) | inactive |
| CCCCc1nc(NCCNC(=O)c2ccco2)c(C#N)c2c1CSC(C)(C)C2 | inconclusive [activator, single point] |
| CC(C)N(C)Cc1cn(C)nc1-c1ccc(Oc2ccccc2)cc1 | inconclusive [activator, single point] |
| O=C(CCl)N(Cc1cccc([N+](=O)[O-])c1)c1cccc(Cl)c1 | inconclusive [activator, single point] |
| CCCCCCNC(=O)CNC(=S)N(Cc1cccs1)C1CCCCC1 | inconclusive [activator, single point] |
| COc1ccc(/C(C)=N/NC(=O)OC(C)(C)C)cc1[N+](=O)[O-] | inactive |
| Cc1ccc(S(=O)(=O)C2(S(=O)(=O)c3ccc(C)cc3)CCCC2)cc1 | active: 8.2 µM |
| Cc1ccc2nc(NCC(=O)NN)nc(-c3ccccc3)c2c1 | inconclusive [activator, single point] |
| Cc1ccc(Sc2ccc(NC(=O)CCN3C(=O)NC4(CCCC4)C3=O)cc2)c(C)c1 | inconclusive [activator, single point] |
| O=C(NCCN1CCOCC1)c1cc(-c2ccc(Cl)s2)nc2ccccc12 | inconclusive [activator, single point] |
| O=C(NCCc1ccccc1)c1c(O)c2cccc3c2n(c1=O)CC3 | inconclusive [activator, full curve] |
| COc1ccc(CN(C(=O)CSc2nnc(-c3ccccc3C)o2)c2ccc(F)cc2)cc1 | inactive |
| CC(C)C1/C(=N/O)CC(c2ccccc2)NC1c1ccccc1 (configuration not stated) | inconclusive [activator, full curve, poor fit] |
| CCOC(=O)C(C)NC(=O)C(NC(=O)C1CCC(CC)CC1)C(C)C (configuration not stated) | inconclusive [activator, partial curve, poor fit] |
| COc1cc(NC(=O)c2cccs2)c(OC)cc1NC(=O)CCC(=O)Nc1cccc2ncccc12 | inconclusive [activator, single point] |
| CCOC(=O)c1cc(-c2ccccc2)sc1NC(=O)C(C)Sc1nnc(N)s1 (configuration not stated) | inconclusive [activator, full curve, poor fit] |
